# From the supplement of paper PMC8728848
# This is one part of the list.
# Legend:
# Assay in all cases: glycan array binding signal (z-score within array); higher = stronger binding
# Details in all cases: glycan notation: IUPAC condensed, linker removed
# Gal(a1-6)Glc = target: Gal(a1-6)Glc
# Outline: (§1)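 From the Consortium for Functional Glycomics database, 3228 arrays were curated, keeping only those whose protein sequence was available. Binding is given as a within-array Z-score averaged across arrays sharing a protein sequence and across linkers. Negative Z-scores can be read as non-binding.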
# Gal(b1-2)Gal = target: Gal(b1-2)Gal
# Outline: as §1
# Gal(b1-3)Gal = target: Gal(b1-3)Gal
# Outline: as §1
# Gal(b1-3)Gal(b1-4)GlcNAc = target: Gal(b1-3)Gal(b1-4)GlcNAc
# Outline: as §1
# Gal(b1-3)GalNAc = target: Gal(b1-3)GalNAc
# Outline: as §1
# [1] = target: Gal(b1-3)GalNAc(a1-3)[Fuc(a1-2)]Gal(b1-4)Glc
# Outline: as §1
# [2] = target: Gal(b1-3)GalNAc(a1-3)[Fuc(a1-2)]Gal(b1-4)GlcNAc
# Outline: as §1
# Gal(b1-3)GalNAc(b1-3)Gal = target: Gal(b1-3)GalNAc(b1-3)Gal
# Outline: as §1
# [3] = target: Gal(b1-3)GalNAc(b1-3)Gal(a1-4)Gal(b1-4)Glc
# Outline: as §1
# [4] = target: Gal(b1-3)GalNAc(b1-4)Gal(b1-4)Glc
# Outline: as §1
# [5] = target: Gal(b1-3)GalNAc(b1-4)[Neu5Ac(a2-3)]Gal(b1-4)Glc
# Outline: as §1
# Gal(b1-3)GlcNAc = target: Gal(b1-3)GlcNAc
# Outline: as §1
# [6] = target: Gal(b1-3)GlcNAc(a1-3)Gal(b1-4)GlcNAc
# Outline: as §1
# [7] = target: Gal(b1-3)GlcNAc(a1-6)Gal(b1-4)GlcNAc
# Outline: as §1
# Gal(b1-3)GlcNAc(b1-2)Man = target: Gal(b1-3)GlcNAc(b1-2)Man
# Outline: as §1
# [8] = target: Gal(b1-3)GlcNAc(b1-2)Man(a1-3)[Gal(b1-3)GlcNAc(b1-2)Man(a1-6)]Man(b1-4)GlcNAc(b1-4)GlcNAc
# Outline: as §1
# [9] = target: Gal(b1-3)GlcNAc(b1-2)Man(a1-3)[Gal(b1-3)GlcNAc(b1-2)Man(a1-6)]Man(b1-4)GlcNAc(b1-4)[Fuc(a1-6)]GlcNAc
# Outline: as §1
# [10] = target: Gal(b1-3)GlcNAc(b1-2)Man(a1-3)[GlcNAc(b1-4)][Gal(b1-3)GlcNAc(b1-2)Man(a1-6)]Man(b1-4)GlcNAc(b1-4)GlcNAc
# Outline: as §1
# [11] = target: Gal(b1-3)GlcNAc(b1-2)[Gal(b1-3)GlcNAc(b1-6)]Man(a1-6)[Gal(b1-3)GlcNAc(b1-2)Man(a1-3)]Man(b1-4)GlcNAc(b1-4)GlcNAc
# Outline: as §1
# [12] = target: Gal(b1-3)GlcNAc(b1-3)Gal(b1-3)GlcNAc
# Outline: as §1
# [13] = target: Gal(b1-3)GlcNAc(b1-3)Gal(b1-4)Glc
# Outline: as §1
# [14] = target: Gal(b1-3)GlcNAc(b1-3)Gal(b1-4)GlcNAc
# Outline: as §1
# [15] = target: Gal(b1-3)GlcNAc(b1-3)Gal(b1-4)GlcNAc(b1-2)Man(a1-3)[Gal(b1-3)GlcNAc(b1-3)Gal(b1-4)GlcNAc(b1-2)Man(a1-6)]Man(b1-4)GlcNAc(b1-4)GlcNAc
# Outline: as §1
# [16] = target: Gal(b1-3)GlcNAc(b1-3)Gal(b1-4)GlcNAc(b1-2)[Gal(b1-3)GlcNAc(b1-3)Gal(b1-4)GlcNAc(b1-6)]Man(a1-6)[Gal(b1-3)GlcNAc(b1-3)Gal(b1-4)GlcNAc(b1-2)Man(a1-3)]Man(b1-4)GlcNAc(b1-4)[Fuc(a1-6)]GlcNAc
# Outline: as §1
# [17] = target: Gal(b1-3)GlcNAc(b1-3)Gal(b1-4)GlcNAc(b1-3)Gal(b1-4)GlcNAc(b1-2)[Gal(b1-3)GlcNAc(b1-3)Gal(b1-4)GlcNAc(b1-3)Gal(b1-4)GlcNAc(b1-6)]Man(a1-6)[Gal(b1-3)GlcNAc(b1-3)Gal(b1-4)GlcNAc(b1-3)Gal(b1-4)GlcNAc(b1-2)Man(a1-3)]Man(b1-4)GlcNAc(b1-4)[Fuc(a1-6)]GlcNAc
# Outline: as §1
# [18] = target: Gal(b1-3)GlcNAc(b1-3)Gal(b1-4)GlcNAc(b1-6)[Gal(b1-3)GlcNAc(b1-3)]Gal(b1-4)Glc
# Outline: as §1
# [19] = target: Gal(b1-3)GlcNAc(b1-3)Gal(b1-4)[Fuc(a1-3)]GlcNAc
# Outline: as §1
# [20] = target: Gal(b1-3)GlcNAc(b1-3)Gal(b1-4)[Fuc(a1-3)]GlcNAc(b1-6)[Gal(b1-3)GlcNAc(b1-3)]Gal(b1-4)Glc
# Outline: as §1
# [21] = target: Gal(b1-3)GlcNAc(b1-3)GalNAc
# Outline: as §1
# [22] = target: Gal(b1-3)GlcNAc(b1-6)Gal(b1-4)GlcNAc
# Outline: as §1
# [23] = target: Gal(b1-3)GlcNAc(b1-6)GalNAc
# Outline: as §1
# [24] = target: Gal(b1-3)GlcNAc(b1-6)[Gal(b1-3)]GalNAc
# Outline: as §1
# Gal(b1-3)GlcNAc6S = target: Gal(b1-3)GlcNAc6S
# Outline: as §1
# [25] = target: Gal(b1-3)[Fuc(a1-4)]GlcNAc
# Outline: as §1
# [26] = target: Gal(b1-3)[Fuc(a1-4)]GlcNAc(b1-2)Man
# Outline: as §1
# [27] = target: Gal(b1-3)[Fuc(a1-4)]GlcNAc(b1-2)Man(a1-3)[Gal(b1-3)[Fuc(a1-4)]GlcNAc(b1-2)Man(a1-6)]Man(b1-4)GlcNAc(b1-4)[Fuc(a1-6)]GlcNAc
# Outline: as §1
# [28] = target: Gal(b1-3)[Fuc(a1-4)]GlcNAc(b1-3)Gal(b1-3)[Fuc(a1-4)]GlcNAc
# Outline: as §1
# [29] = target: Gal(b1-3)[Fuc(a1-4)]GlcNAc(b1-3)Gal(b1-4)[Fuc(a1-3)]GlcNAc
# Outline: as §1
# [30] = target: Gal(b1-3)[Fuc(a1-4)]GlcNAc(b1-6)GalNAc
# Outline: as §1
# [31] = target: Gal(b1-3)[GlcNAc(b1-6)]GalNAc
# Outline: as §1
# [32] = target: Gal(b1-3)[Neu5Ac(a2-6)]GalNAc
# Outline: as §1
# [33] = target: Gal(b1-3)[Neu5Ac(a2-6)]GlcNAc(b1-4)Gal(b1-4)Glc
# Outline: as §1
# [34] = target: Gal(b1-3)[Neu5Ac(b2-6)]GalNAc
# Outline: as §1
# Gal(b1-4)Gal = target: Gal(b1-4)Gal
# Outline: as §1
# [35] = target: Gal(b1-4)GalNAc(a1-3)[Fuc(a1-2)]Gal(b1-4)GlcNAc
# Outline: as §1
binder,measurement,setting,value
APVPVTKLVCDGDTYKCTAYLDFGDGRWVAQWDTNVFHTG [PhoSpL (Pholiota squarrosa)],glycan array binding signal (z-score),Gal(a1-6)Glc,-0.091
same,glycan array binding signal (z-score),Gal(b1-2)Gal,-0.507
same,glycan array binding signal (z-score),Gal(b1-3)Gal,0.442
same,glycan array binding signal (z-score),Gal(b1-3)Gal(b1-4)GlcNAc,-0.413
same,glycan array binding signal (z-score),Gal(b1-3)GalNAc,-0.201
same,glycan array binding signal (z-score),[1],-0.282
same,glycan array binding signal (z-score),[2],-0.143
same,glycan array binding signal (z-score),Gal(b1-3)GalNAc(b1-3)Gal,-0.201
same,glycan array binding signal (z-score),[3],0.377
same,glycan array binding signal (z-score),[4],0.095
same,glycan array binding signal (z-score),[5],-0.68
same,glycan array binding signal (z-score),Gal(b1-3)GlcNAc,-0.41
same,glycan array binding signal (z-score),[6],-0.14
same,glycan array binding signal (z-score),[7],-0.121
same,glycan array binding signal (z-score),Gal(b1-3)GlcNAc(b1-2)Man,0.744
same,glycan array binding signal (z-score),[8],0.027
same,glycan array binding signal (z-score),[9],6.05
same,glycan array binding signal (z-score),[10],-0.757
same,glycan array binding signal (z-score),[11],-0.346
same,glycan array binding signal (z-score),[12],-0.265
same,glycan array binding signal (z-score),[13],-1.16
same,glycan array binding signal (z-score),[14],0.175
same,glycan array binding signal (z-score),[15],-0.402
same,glycan array binding signal (z-score),[16],0.083
same,glycan array binding signal (z-score),[17],0.325
same,glycan array binding signal (z-score),[18],-0.292
same,glycan array binding signal (z-score),[19],0.037
same,glycan array binding signal (z-score),[20],0.054
same,glycan array binding signal (z-score),[21],-0.812
same,glycan array binding signal (z-score),[22],0.218
same,glycan array binding signal (z-score),[23],-0.381
same,glycan array binding signal (z-score),[24],-0.681
same,glycan array binding signal (z-score),Gal(b1-3)GlcNAc6S,0.449
same,glycan array binding signal (z-score),[25],-0.078
same,glycan array binding signal (z-score),[26],-0.075
same,glycan array binding signal (z-score),[27],-0.05
same,glycan array binding signal (z-score),[28],-0.376
same,glycan array binding signal (z-score),[29],-0.256
same,glycan array binding signal (z-score),[30],-0.334
same,glycan array binding signal (z-score),[31],-0.226
same,glycan array binding signal (z-score),[32],0.006
same,glycan array binding signal (z-score),[33],-0.173
same,glycan array binding signal (z-score),[34],-0.431
same,glycan array binding signal (z-score),Gal(b1-4)Gal,-0.352
same,glycan array binding signal (z-score),[35],-0.219
